Binding signal data for 14 molecules are collected here from publication PMC12136788.

To fix the notation:
T1: UNK ZnF1-3 (human, UniProt Q9C0B0 31-174)
T1 sequence: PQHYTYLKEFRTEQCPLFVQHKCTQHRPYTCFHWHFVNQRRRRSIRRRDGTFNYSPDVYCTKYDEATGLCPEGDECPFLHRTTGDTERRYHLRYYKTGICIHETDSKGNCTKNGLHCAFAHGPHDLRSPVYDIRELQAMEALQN

B1: chr18:48447474:48447475:+_ENSG00000082212_ENST00000321341|hu_mus|motif|central (ssRNA)
RNA: GGGAGUUCUACAGUCCGACGAUCCCAGAUCUUUCUCUGCGCCUCCUCUUCUGAGAGACCACUUUCCACCAUUGAUAGAACGGUGAGAUUGGCAAUUCCAAGUGCAGCUUCUCCUGCUCCAAGAAAUAAGAUUUUGUGUUCUGACAACAGAGGAUUGAGCAUCA
B2: chr2:122485053:122485054:-_ENSG00000155438_ENST00000285814|hu_hu|motif|central (ssRNA)
RNA: GGGAGUUCUACAGUCCGACGAUCUCAACUUUCUAUCCAGGCAGAGUAAACUAAGGAGAGCUAUGAAAUAUCAAAAGAAAACGGGAGGCCAGGACAAAGAGGCAAUGUCAGCCAAGCCACUGCAAGAUGGUAUGCACCCCUGUACAACAGAGGAUUGAGCAUCA
B3: chr13:42873775:42873776:+_ENSG00000023516_ENST00000025301|hu_hu|motif|central (ssRNA)
RNA: GGGAGUUCUACAGUCCGACGAUCAGAAGACGAAAAAAAUGUUUUCUGUAAAUCACUAUCUUUAUCUGAAGCAUUAGAUGACCGGUAGAAACUCCUUUGGGUCCAAGGCUCUGAAAUUGAUGUUGUGACUGAAGUUUUCACAGACAACAGAGGAUUGAGCAUCA
B4: chr19:36145531:36145532:+_ENSG00000126267_ENST00000246554|hu_mus|FALSE|FALSE (ssRNA)
RNA: GGGAGUUCUACAGUCCGACGAUCAUCCCAGGCUGAGACCCAUGACACGGGACAGAGGGACUUGUACACACGCCGGUACCACUCACACACGGAGACAUCACCCCCCUUGGCCGUCAUUGCCUUCUCACAGCGGUGGAAGUCCAGCAACAGAGGAUUGAGCAUCA
B5: chr19:16212804:16212805:+_ENSG00000167460_ENST00000300933|hu_mus|hu_hu_hu_mus_False|28_48 (ssRNA)
RNA: GGGAGUUCUACAGUCCGACGAUCAACAAUUCUGGAGUGAAGGAAAGAUGUAACAUGGAACAGCAUUAAAGCUCAGUCAGAAGGCACGUGGGUAAUUAUGAUCACCCCCCAAGCAUUGCUUGGAAUGCUUAAAGACAAUCUGUUCAACAGAGGAUUGAGCAUCA
B6: chr18:32579733:32579734:+_ENSMUSG00000024381_ENSMUST00000025239|mus_hu|FALSE|FALSE (ssRNA)
RNA: GGGAGUUCUACAGUCCGACGAUCCUUGUGGAAGUUUUCCUCCAGGCCCGCGAUGCUCUGGAACGUGUUGACGUAGAAACCUACGCGGCUGUUCCACAGGGACGGCAGCUCCUCCUGCAGAUCCACAUUCAUCUCCUCAAACACCAACAGAGGAUUGAGCAUCA
B7: chr3:10015032:10015033:+_ENSMUSG00000027533_ENSMUST00000029046|mus_mus|mus_mus_mus_hu_True|8_28 (ssRNA)
RNA: GGGAGUUCUACAGUCCGACGAUCGUUUUUACCAUCACAAGUGAUGAUACAAUCUGGCUUGGCCAUUGCGCCCAUUUUUCGCAAAGCUAUUCCCACUCCUAGCUCCUUCAUGUACUCAUCAAAGCCUUGGCUUUCCACCAGGCGCAACAGAGGAUUGAGCAUCA
B8: chr1:163295886:163295887:+_ENSG00000143228_ENST00000271452|hu_hu|FALSE|FALSE (ssRNA)
RNA: GGGAGUUCUACAGUCCGACGAUCGGUUUUUACCAUCAGCUCCUGUUAAGAUCUUAUUGCGAAUAUGAAUCACAAUCUCAGCUACAUUAUAUCUGGGGAAAGACAAAGUUUCCAUCUUGGAAGUUUCCUGUUAAUCUCCCAGGCCAACAGAGGAUUGAGCAUCA
B9: chr4:34758383:34758384:-_ENSMUSG00000039967_ENSMUST00000047950|mus_mus|FALSE|FALSE (ssRNA)
RNA: GGGAGUUCUACAGUCCGACGAUCUUCAUCAUCUGAACCAUCGUUGUCAUUAAACACUAUGAAAUCUGUUGAAUAAAGACUAUUCUUUUUUAUGGGUCGCUGUUCCUGUUUAGCCACAGUAUUAAUAUUAGUCUUUUGAUUUUCCAACAGAGGAUUGAGCAUCA
B10: chr3:148802587:148802588:-_ENSG00000071794_ENST00000310053|hu_mus|hu_hu_hu_mus_False|1_38 (ssRNA)
RNA: GGGAGUUCUACAGUCCGACGAUCUCCAACAACUUGUCCUCUCAUAGUUCCAAAUAAAACCAAAUCUUGCUCUUCAUCACUCGUUAGGAAGUCAUCUGGAGGGAUAAUGUCUUGGAAUUCAAAAUGUGGCAAGAAAGUUGGAUACAACAGAGGAUUGAGCAUCA
B11: chr4:42581876:42581877:-_ENSG00000124406_ENST00000264449|hu_mus|FALSE|FALSE (ssRNA)
RNA: GGGAGUUCUACAGUCCGACGAUCGCCACCAUAGUGUAGAUGGAGGUACCAGUCUUUCCCGGAAUGCCUUCGGUUCCAAAUGGCUGAGCCCACAGAACACACAAGAGACAUGGCAAUUAAGAUGCAAAAUAAAAUCAGAAUUUGCAACAGAGGAUUGAGCAUCA
B12: 56928950_56934448_117_3pUTR_ENSMUSG00000042557_ENSMUST00000167715|mouse|control|control (ssRNA)
RNA: GGGAGUUCUACAGUCCGACGAUCGAUUCCUGGUCAUCCAAACGUCGCUUCAUUCUGCACUCAUGCUCAGGGAUGCACUACAAACUGUUUCAUGUGUGCAAAGGUUCAACUGUGAGAGAUGAAUGAGUUCUGAAGGAGGAUGGUCAACAGAGGAUUGAGCAUCA
B13: chr12:118855022:118855023:+_ENSG00000111707_ENST00000543473|hu_hu|FALSE|FALSE (ssRNA)
RNA: GGGAGUUCUACAGUCCGACGAUCUACACUGGCCCCAAUUAGAAGUUCAAAAACAAAAAUUAAGUUAGGUAGUCAGACAUCUAUAAAUACUAGUAUCCGCAUGAAUGAAAACACCCUGGCUUUGGUAUGGCUACAGAAAUCCAUCAACAGAGGAUUGAGCAUCA
B14: chr12:109046171:109046172:-_ENSG00000110880_ENST00000261401|hu_mus|FALSE|FALSE (ssRNA)
RNA: GGGAGUUCUACAGUCCGACGAUCCUUGCUGCUGAAUGUGUUGAGGUAGUGGACAUAUGGGGAUUCAUCCGUGAUCUCAAAAUAGCGGAUACUGCUGUCACCCUUCCCACAUAAGUAGAUGAUGCUGGUGUCCGGAUCGUAGAACAACAGAGGAUUGAGCAUCA

The list shows a part of the results.

The target in this assay is T1, UNK ZnF1-3. Kind of assay: nsRBNS (natural sequence RNA bind-n-seq); RBNS binding buffer (assumed for nsRBNS): 25 mM Tris pH 7.5, 150 mM KCl, 3 mM MgCl2, 0.01% Triton X-100, 500 ug/ml BSA, 20 U/ml SUPERase-In, 4 C; UNK is unkempt and MSI1 is Musashi-1; names of the RNAs are library labels; protein concentration not given here; high values mean tight binding.
Molecule B1 came in with a binding signal of 0.712 enrichment R.

In turn, B2 came in with a binding signal of 1.73 enrichment R.

In turn, B3 returned a binding signal of 0.868 enrichment R.

Turning to B4, the binding signal came to 1.32 enrichment R.

B5 displayed a binding signal of 1.12 enrichment R.

In turn, B6 displayed a binding signal of 0.702 enrichment R.

As for B7, the binding signal stood at 0.696 enrichment R.

With B8, the binding signal was determined as 1.08 enrichment R.

B9 displayed a binding signal of 0.418 enrichment R.

In turn, B10 returned a binding signal of 0.822 enrichment R.

Molecule B11 displayed a binding signal of 1.94 enrichment R.

The molecule B12 came in with a binding signal of 0.96 enrichment R.

Turning to B13, the binding signal was determined as 2.14 enrichment R.

B14 had a binding signal of 0.666 enrichment R.
